{
  "source": "PubChem BioAssay AID1030",
  "about": "(National Center for Advancing Translational Sciences (NCATS), 2008)",
  "note": "Hit rate of the full screen: of about 220,000 compounds, about 16,000 (7.3%) were called active. Inconclusive results, whose numbers are uncertain, are shown with a selection of clear calls. Calls come from the whole dose curve; as a rule, active = well fitted inhibition curve with a large enough effect (not every such curve was filed as active); inconclusive = small, poorly fitted or top-dose-only effect, or another doubt; inactive = no such curve, though single readings can be large or run the other way. No potency is given beside an inconclusive call; the fits are too rough. Potency is the fitted concentration of half-maximal effect; tags give direction and shape of the fitted curve.",
  "data": [
    {"molecular_target": "Aldehyde dehydrogenase 1A1 (Homo sapiens) (UniProt P00352)", "sequence (P00352 whole entry, looked up)": "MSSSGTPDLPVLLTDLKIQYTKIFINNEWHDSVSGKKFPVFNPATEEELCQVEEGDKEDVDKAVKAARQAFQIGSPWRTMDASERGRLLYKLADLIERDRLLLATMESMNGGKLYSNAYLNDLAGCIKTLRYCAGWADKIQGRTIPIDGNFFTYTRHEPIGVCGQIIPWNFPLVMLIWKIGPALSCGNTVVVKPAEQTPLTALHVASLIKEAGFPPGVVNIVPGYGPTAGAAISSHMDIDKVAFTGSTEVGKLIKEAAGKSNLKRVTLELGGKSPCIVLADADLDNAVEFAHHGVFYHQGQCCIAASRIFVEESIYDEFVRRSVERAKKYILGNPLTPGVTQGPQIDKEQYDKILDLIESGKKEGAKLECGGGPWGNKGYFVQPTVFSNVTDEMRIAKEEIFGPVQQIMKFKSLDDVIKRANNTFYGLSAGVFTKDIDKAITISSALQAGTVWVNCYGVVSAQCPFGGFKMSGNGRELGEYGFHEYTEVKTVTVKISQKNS", "test": "qHTS Assay for Inhibitors of Aldehyde Dehydrogenase 1 (ALDH1A1);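 for activity, negative = inhibition: plate controls were no enzyme wells and a reference inhibitor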", "details": "Purified ALDH1A1, NADH fluorescence, propionaldehyde substrate; series mostly up to 75.3 µM; activity, negative = inhibition: at the top concentration", "values": [
      {"smiles": "Cn1c(SCC(=O)N(C2CCCCC2)C2CCCCC2)nnc1-c1cccs1", "Potency": "inconclusive [inhibitor, single point]"},
      {"smiles": "CCOC(=O)CCNCC1COc2ccccc2O1", "note": "(configuration not stated)", "activity, negative = inhibition": "inactive: 6.54%"},
      {"smiles": "CCCCC#CC1C=CC(Oc2cc(OC)c(OC)c(OC)c2)C(COC(=O)OCC)O1", "note": "(configuration not stated)", "activity, negative = inhibition": "inactive: -3.89% [at 13.5 µM]"},
      {"smiles": "CC(=O)N1CCN(c2ccc(NC(=O)c3ccc4c(c3)OCCO4)cc2)CC1", "activity, negative = inhibition": "inactive: -7.95%"},
      {"smiles": "O=C(COC(=O)/C=C/c1cccs1)Nc1nc(-c2ccccc2)cs1", "Potency": "active: 22.4 µM"},
      {"smiles": "CCOC(=O)N1CCC(NC(=O)Cn2ncc3c4ccccc4n(C)c3c2=O)CC1", "Potency": "inconclusive [inhibitor, single point]"},
      {"smiles": "Cc1cc(C)nc(NC(=O)CSc2nc3ccccc3s2)n1", "activity, negative = inhibition": "inactive: -1.45%"},
      {"smiles": "CC(=O)Cc1cc(O)c2ccccc2c1OC(=O)c1ccccc1", "activity, negative = inhibition": "inactive: -1.96%"},
      {"smiles": "COc1cccc(-c2nc(SCC(=O)Nc3nc(-c4ccccc4)c(C)s3)[nH]c(=O)c2C#N)c1", "Potency": "inconclusive [inhibitor, single point]"},
      {"smiles": "COc1ccc(/C=N/NC(=S)Nc2ccccc2)cc1COc1ccc(F)cc1", "Potency": "inconclusive [inhibitor, single point]"},
      {"smiles": "CCCCCC/C(C)=C1/SC(=S)NC1=O", "Potency": "inconclusive [inhibitor, partial curve]"},
      {"smiles": "CC(NC(=O)CCCN1C(=O)c2ccccc2C1=O)c1ccc2c(c1)CCCC2", "note": "(configuration not stated)", "Potency": "inconclusive [inhibitor, full curve]"},
      {"smiles": "COc1ccc(S(=O)(=O)Nc2cc(Sc3ncn[nH]3)c(O)c3ccccc23)cc1", "Potency": "inconclusive [inhibitor, partial curve]"},
      {"smiles": "CSc1c(CC(=O)Nc2ccccc2Cl)n(Cc2ccccc2)c2ccccc12", "activity, negative = inhibition": "inactive: 3.02%"},
      {"smiles": "Cc1ccc(S(=O)(=O)CC(=O)Nc2c(C)n(C)n(-c3ccccc3)c2=O)cc1", "activity, negative = inhibition": "inactive: -4.24%"},
      {"smiles": "COc1ccc(Cn2cnc3c([N+](=O)[O-])c(C)c(C)cc32)cc1", "activity, negative = inhibition": "inactive: -2.95%"},
      {"smiles": "CC1/C=C/C=C/C=C/C=C/C=C/C=C/C=C/C(OC2OC(C)C(O)C(N)C2O)CC2O[C@@](O)(CC(O)CC(O)C(O)CCC(O)CC(O)CC(=O)OC(C)[C@H](C)C1O)CC(O)C2C(=O)O", "note": "(some centres not stated)", "Potency": "inconclusive [inhibitor, partial curve]"},
      {"smiles": "COc1cc(/C=C(/C#N)C(=O)Nc2ccccc2)ccc1OCc1ccc(C(=O)O)cc1", "Potency": "active: 22.4 µM"},
      {"smiles": "Cc1ccc(C(=O)NC(=S)N2CCN(c3ccccc3F)CC2)cc1", "Potency": "inconclusive [inhibitor, single point]"},
      {"smiles": "CCC(=O)NC(=S)Nc1ccc(NC(=O)c2ccc(C)c([N+](=O)[O-])c2)cc1", "Potency": "inconclusive [inhibitor, single point]"},
      {"smiles": "Cc1c(C#N)c(N)nc2c3c(sc12)NC(=O)CC3c1ccccc1", "note": "(configuration not stated)", "Potency": "inconclusive [inhibitor, partial curve]"},
      {"smiles": "Nc1ccnc(C(F)(F)F)c1C(=O)c1ccccc1", "activity, negative = inhibition": "inactive: -6.82%"},
      {"smiles": "Cc1c(O)c(CN2CCCCC2)cc2c3c(c(=O)oc12)CCC3", "Potency": "inconclusive [inhibitor, partial curve]"},
      {"smiles": "Nc1ccc(Sc2nnnn2-c2ccccc2)c(Cl)c1", "Potency": "active: 22.4 µM"},
      {"smiles": "CN(C)C(=O)N1CCC(C(=O)NCc2ccccc2Cl)CC1", "activity, negative = inhibition": "inactive: 4.1%"},
      {"smiles": "N#Cc1cnn(-c2nc(SCc3ccccc3)nc3sc4c(c23)CCCC4)c1N", "Potency": "active: 8.91 µM"},
      {"smiles": "CCOC(=O)c1c(C)[nH]c(C(=O)OCC(=O)Nc2ccc(OC)c(Cl)c2)c1C", "Potency": "inconclusive [inhibitor, single point]"},
      {"smiles": "COc1ccc(Oc2ncc3ncc(=O)n(C[C@H]4CCCO4)c3n2)cc1", "Potency": "active: 14.1 µM"},
      {"smiles": "c1ccc(CNc2ncnc3c2cnn3Cc2ccccc2)cc1", "Potency": "inconclusive [inhibitor, single point]"},
      {"smiles": "O=S(=O)(N/N=C\\c1cccnc1)c1ccccc1", "Potency": "inconclusive [inhibitor, single point]"},
      {"smiles": "O=c1c(Cl)c(N2CCN(c3ccc(F)cc3)CC2)cnn1C12CC3CC(CC(C3)C1)C2", "Potency": "inconclusive [inhibitor, partial curve]"},
      {"smiles": "COc1ccc(C2NC(=S)N3C(c4ccc(OC)cc4)NC(=S)N23)cc1", "note": "(configuration not stated)", "Potency": "active: 11.2 µM"},
      {"smiles": "CC(C)CN1CCC2(CC1)CCN(C(=O)c1cc(C(F)(F)F)cc(C(F)(F)F)c1)CC2", "activity, negative = inhibition": "inactive: 0.654%"},
      {"smiles": "O=C(Nc1ccccc1)N1CC[C@@]2(CCCN(C(=O)c3ccco3)C2)C1", "Potency": "inconclusive [inhibitor, single point]"},
      {"smiles": "COc1ccccc1C(=O)NCC1(c2ccccc2)CCCC1", "Potency": "inconclusive [inhibitor, single point]"},
      {"smiles": "COc1ccc(NC(=S)N/N=C/c2cccn2Cc2ccccc2F)cc1", "activity, negative = inhibition": "inactive: 2.41%"},
      {"smiles": "N#CC1=C(C2CC2)CC(c2ccccc2)C(C#N)=C1N", "note": "(configuration not stated)", "Potency": "inconclusive [inhibitor, single point]"},
      {"smiles": "COc1cccc(-c2nc3ccccc3c(=O)o2)c1", "Potency": "inconclusive [inhibitor, single point]"},
      {"smiles": "Cn1c(=O)[nH]c(=O)c2c1nc(NCCCO)n2CCCc1ccccc1", "activity, negative = inhibition": "inactive: -4.01%"},
      {"smiles": "Cc1ccc(N=Cc2ccc(N(C)C)cc2)cc1C", "Potency": "active: 0.562 µM"},
      {"smiles": "Cc1ccc2nc(-c3ccc(NC(=O)CCN4C(=O)c5ccccc5C4=O)cc3)sc2c1", "activity, negative = inhibition": "inactive: 5.8%"},
      {"smiles": "CC1(C)CC(=O)C(C=NCCN2CCN(CCCCS(=O)(=O)O)CC2)=C(O)C1", "activity, negative = inhibition": "inactive: 0.608%"},
      {"smiles": "CCCCc1nc2c(c3c1C[C@H](C)OC3)CN(S(=O)(=O)c1ccc(NC(C)=O)cc1)CC2", "activity, negative = inhibition": "inactive: 5.46% [at 13.5 µM]"},
      {"smiles": "Cc1noc(NS(=O)(=O)c2ccc(NC(=O)CCn3c(=O)oc4ccccc43)cc2)c1C", "Potency": "active: 3.98 µM"},
      {"smiles": "COc1ccc(CNS(=O)(=O)c2ccc(S(=O)(=O)N3CCCCC3)cc2)cc1", "Potency": "inconclusive [inhibitor, full curve, poor fit]"},
      {"smiles": "COc1ccc(C(C)=O)cc1CSc1ccccn1", "Potency": "inconclusive [inhibitor, single point]"},
      {"smiles": "COc1ccc(NC(=O)CSc2ccc3c(c2)OCCO3)cc1OC", "Potency": "inconclusive [inhibitor, single point]"}
    ]}
  ]
}
